According to PubChem BioAssay AID1347120 (National Center for Advancing Translational Sciences (NCATS), 2019):
Among all 390,000 compounds or so, about 930 (0.24%) were called active. The shares of active, inactive and inconclusive entries below differ from those in the screen. Calls follow the shape of the dose curve; as a rule, active = well fitted activation curve with a large enough effect; inconclusive = small, poorly fitted or top-dose-only effect; inactive = no such curve, though single readings can be large or run the other way. Potencies of inconclusive entries are doubtful fits and often do not repeat.

Assay: qHTS for Suppressors of FUS Proteinopathy: Primary screen using FUS-linked yeast assay; also: nearly all actives have a fitted effect of over 55% in size;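 as to growth rescue (activation): plate controls were DMSO vehicle for no effect and reference control for full effect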
Settings: S. cerevisiae FUS-expressing, OD600, 24 h; Potency: growth rescue; growth rescue (activation): at 76.6 µM (top of the series)
Procedure, shortened: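 Absorbance at 600 nm, taken 24hr after compound addition, measured rescue of FUS-yeast growth at 30C. Induction used 2% galactose with seeding at OD 0.005. Controls: CP55940 from 92uM final, DMSO only.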
Potency is read from the fitted curve at half-maximal effect; tags tell the direction and shape of the fitted curve.

Structure (SMILES) | Potency | growth rescue (activation)
COc1ccc2oc(=O)c(-c3csc(Nc4cccc(O)c4)n3)cc2c1 | inconclusive: 8.91 µM [activator, partial curve] | –
COc1cc(C2C(C#N)=C(N)N(Nc3ccccc3)C3=C2C(=O)CC(C)(C)C3)ccc1OCc1cccc(F)c1 (stereo not drawn) | inconclusive: 14.1 µM [activator, partial curve, poor fit] | –
O=C(/C=C/c1ccccc1)Nc1cc(S(=O)(=O)N2CCOCC2)ccc1N1CCCC1 | inconclusive: 39.8 µM [activator, partial curve, poor fit] | –
O=C(c1ccc2c(c1)N(Cc1ccc(F)cc1)CCS2)N1CCN(c2ccccc2)CC1 | inconclusive: 17.8 µM [activator, partial curve, poor fit] | –
COc1ccc(-c2ccc(CCC(=O)O)o2)cc1 | inconclusive: 22.4 µM [activator, partial curve, poor fit] | –
Cc1sc2nc(SCC(=O)NCc3ccco3)n(Cc3ccccc3)c(=O)c2c1C | inconclusive: 8.91 µM [activator, partial curve] | –
Nc1c(C(=O)NCc2ccc(F)cc2)c2nc3ccccc3nc2n1CCCN1CCOCC1 | inconclusive: 44.7 µM [activator, single point] | –
COC(=O)Cc1cc(=O)n2[nH]c(C)cc2n1 | – | inactive: 21.9%
CNC(=O)c1sc2nc(-c3ccc(OC)cc3)cn2c1C | – | inactive: -10.6%
Cc1cc(=O)[nH]c(SCc2nc3ccc([N+](=O)[O-])cc3[nH]2)n1 | inconclusive: 31.6 µM [activator, partial curve, poor fit] | –
CCOC(=O)c1c(NC(=O)CN2CCN(S(=O)(=O)c3cc(Cl)ccc3Cl)CC2)sc(C(=O)N(C)C)c1C | inconclusive: 17.8 µM [activator, partial curve, poor fit] | –
Cc1cnc(CNc2nc3cc(-c4ccccc4C)sc3c(=O)n2C)cn1 | – | inactive: 38.1%
COc1ccc(N2CCN(C(=O)c3ccc(CS(=O)(=O)c4ccc(OC)cc4)o3)CC2)cc1 | – | inactive: 14.8%
Cc1cc(C)n2c(Nc3ccccc3C)c(-c3cccs3)nc2n1 | – | inactive: -6.59%
C[C@@H]1CC[C@]2(C(=O)O)CC[C@]3(C)C(=CCC4[C@@]5(C)CC[C@H](O)[C@@](C)(C(=O)O)C5CC[C@]43C)C2[C@]1(C)O (stereo partly drawn) | inconclusive: 50.1 µM [activator, single point] | –
CC(C)(C)c1ccc(C(=O)NNc2ncnc3c2cnn3-c2ccccc2)cc1 | – | inactive: -20.1%
CCN(C(=O)Cn1c(SCC(=O)Nc2ccc(OC)cc2)nc2ccccc21)c1cccc(C)c1 | inconclusive: 20 µM [activator, partial curve, poor fit] | –
CCCOc1ccc2c3c(c(=O)oc2c1OCCC)CCCC3 | – | inactive: 2.23%
Cc1cc(C)cc(NS(=O)(=O)c2ccc(-c3cnc(C4CC4)o3)cc2)c1 | inconclusive: 50.1 µM [activator, single point] | –
C=CCOc1c(Br)cc(CNc2ccc(NC(=O)C(C)C)c(OC)c2)cc1OCC | active: 14.1 µM | –
COc1ccc(/C=C/C(=O)N2CCC(c3nc4ccccc4o3)CC2)cc1OC | inconclusive: 25.1 µM [activator, single point] | –

Structure (SMILES) | Potency | growth rescue (activation)
CCN(C(=O)C1CCC(CNS(=O)(=O)c2cccc3nsnc23)CC1)c1cccc(C)c1 (stereo not drawn) | inconclusive: 20 µM [activator, partial curve, poor fit] | –
CCN(C(=O)C1CCC(CNS(=O)(=O)c2cccc3nsnc23)CC1)c1ccccc1 (stereo not drawn) | – | inactive: 34.4%
O=C(Cc1ccc(NC(=O)N2CCSc3ncccc32)cc1)NCc1ccccc1 | – | inactive: -2.19%
CN(CCc1ccccc1)C(=O)c1cccc(NC(=O)Cc2cccc(NC(=O)C3CCCN(C(=O)C4CCC4)C3)c2)c1 (stereo not drawn) | inconclusive: 20 µM [activator, single point] | –
CCCCOC(=O)Nc1ccc(C(C)C)cc1 | – | inactive: 6.23%
COc1ccc(C2=NN(S(C)(=O)=O)C(c3cn(-c4ccccc4)nc3-c3cccs3)C2)cc1 (stereo not drawn) | – | inactive: 7.25%
Cc1ccc(S(=O)(=O)N(CC(O)Cn2c3ccccc3c3ccccc32)c2cccc(C(=O)N(C)C)c2)cc1 (stereo not drawn) | inconclusive: 12.6 µM [activator, partial curve, poor fit] | –
COc1cccc(N2CCN(S(=O)(=O)c3ccc4c(c3)CC(C)N4C(=O)C3CC3)CC2)c1 (stereo not drawn) | inconclusive: 14.1 µM [activator, partial curve] | –
Cc1ccc(CN2C(=O)c3ccccc3Sc3ccc(C(=O)NCc4ccco4)cc32)cc1 | active: 10 µM | –
O=C(Nc1ccccc1)OCCN1C(=O)CCC12CCC(c1ccccc1)CC2 (stereo not drawn) | – | inactive: 4.9%
CO[C@H]1/C=C/O[C@@]2(C)Oc3c(C)c(O)c4c(O)c(c(C=NN5CCN(C)CC5)c(O)c4c3C2=O)NC(=O)/C(C)=C\C=C\[C@H](C)[C@H](O)[C@@H](C)[C@@H](O)[C@@H](C)[C@H](OC(C)=O)[C@@H]1C | inconclusive: 15.8 µM [activator, partial curve, poor fit] | –
COc1ccccc1NC(=O)Nc1ccnn1C1CCN(C(=O)c2ccccn2)CC1 | – | inactive: 16%
Cc1ccc(Cn2c(CCNc3nc(-c4ccc(Cl)c([N+](=O)[O-])c4)cs3)nc3cc(C(=O)NCCCO)ccc32)cc1 | inconclusive: 35.5 µM [activator, single point] | –
COc1ccc(CC(=O)NC(=S)Nc2cccc(C)c2)cc1 | – | inactive: 13.2%
CCOC(=O)CC(=O)CSc1nc(N)c(C#N)c(-c2ccc(Cl)cc2)c1C#N | inconclusive: 4.47 µM [activator, full curve, poor fit] | –
COc1cccc(C2C(C(=O)/C=C/c3ccco3)=C(O)C(=O)N2CCN2CCOCC2)c1 (stereo not drawn) | inconclusive: 17.8 µM [activator, partial curve, poor fit] | –
CCc1nnc(NC(=O)c2ccc3ccccc3n2)s1 | – | inactive: 3.48%
COCCCNC(=O)C[C@H]1C[C@@]2(C(=O)OC)C(=C[C@H](C3CCCC3)O[C@@H]2C)N(Cc2cccc3ccccc23)C1=O | inconclusive: 28.2 µM [activator, single point] | –
O=C(Nc1ccccc1N1CCOCC1)c1cccc(S(=O)(=O)Nc2ccccc2F)c1 | inconclusive: 31.6 µM [activator, single point] | –
Cc1ccccc1CNC(=O)c1oc2c(c1C)-c1nn(Cc3ccc(Cl)cc3)cc1CC2 | inconclusive: 28.2 µM [activator, single point] | –
CCC(=O)Nc1nnc(SCC(=O)NCC2CCCO2)s1 (stereo not drawn) | – | inconclusive: -83.9% [activator]

Structure (SMILES) | Potency | growth rescue (activation)
COCCNC(=S)N(CCc1c(C)[nH]c2ccc(F)cc12)Cc1ccc(C)cc1 | inconclusive: 28.2 µM [activator, single point] | –
COc1ccc(-n2cnnc2SCC(=O)Nc2cc(S(=O)(=O)N3CCCCC3)ccc2C)cc1 | inconclusive: 12.6 µM [activator, partial curve] | –
COC(=O)[C@@]1(C(C)C)N=C(c2cc(OC)c(OC)c(OC)c2)[C@]2(O1)C(=O)N(C)c1ccc(Cl)cc12 | inconclusive: 15.8 µM [activator, partial curve] | –
CCOC(=O)[C@]12CCCC=C1N(Cc1ccc(Cl)cc1Cl)C(=O)[C@H](CC(=O)NCc1ccc(OC)c(OC)c1)C2 | inconclusive: 15.8 µM [activator, single point] | –
COc1ccc(CCNC(=O)CC2Nc3ccccc3NC2=O)cc1OC (stereo not drawn) | inconclusive: 44.7 µM [activator, partial curve, poor fit] | –
O=S(=O)(/N=C(/c1ccccc1Cl)N1CCOCC1)c1ccccc1 | inconclusive: 44.7 µM [activator, partial curve, poor fit] | –
O=C(Cn1ccn(-c2ccc(F)cc2)c(=O)c1=O)Nc1ccccc1C(F)(F)F | – | inactive: -3.38%
COc1ccc(CNC(=O)CCc2c(C)c3cc4c(C)c(C)oc4cc3oc2=O)cc1 | – | inactive: 0.989%
CCN1CCN(Cc2ccc(NC(=O)c3ccc(C)c(NC(=O)c4cccc5[nH]ccc45)c3)cc2C(F)(F)F)CC1 | inconclusive: 31.6 µM [activator, single point] | –
CCOc1ccc(/C(O)=C2/C(=O)C(=O)N(c3ccccn3)C2c2ccc(C)cc2)c(C)c1 (stereo not drawn) | inconclusive: 50.1 µM [activator, single point] | –
CC(=O)Nc1ccc(-c2nnc3n(Cc4ccc(C)cc4)c(=O)c4ccccc4n23)cc1 | – | inactive: 3.49%
COC(=O)[C@@]1(Cc2ccc(F)cc2)[C@H]2c3cc(C(=O)N(C)C)n(Cc4ccc(C)o4)c3C[C@H]2CN1C(=O)c1ccccc1 | inconclusive: 14.1 µM [activator, partial curve] | –
CCCCCOc1ccc(Cn2c(=O)oc3ccc(C)cc32)cc1OC | – | inactive: 10.9%
Cc1nc(-c2ccccc2)sc1C(=O)/C=C/N(C)C | inconclusive: 25.1 µM [activator, single point] | –
O=C(CSc1nnc(-c2cccnc2)n1-c1ccccc1)c1ccccc1Cl | – | inactive: 35.9%
Cc1onc(-c2ccccc2Cl)c1C(=O)N1CCN(c2nc3ccccc3s2)CC1 | – | inactive: 17.6%
CCCn1c(SCC(=O)c2c[nH]c3ccccc23)nnc1-c1ccncc1 | inconclusive: 15.8 µM [activator, partial curve] | –
CCOC(=O)c1c(C)nc2c(c(SC)nn2-c2ccccc2)c1N | – | inactive: 28.8%
CCCCn1nc(C(=O)N(CC)CC(=O)Nc2c(F)cccc2F)c2ccccc2c1=O | inconclusive: 22.4 µM [activator, partial curve, poor fit] | –
O=C(CCc1nnc2n(Cc3ccc(F)cc3)c(=O)c3ccccc3n12)N1CCN(c2ccccn2)CC1 | – | inactive: 16.4%
CCOC(=O)N1CCC(N2C(=O)c3ccccc3C2Nc2ccccc2C)CC1 (stereo not drawn) | – | inactive: 15.9%
